Data on 32 sequences can be found in publication PMC12820563, “FoxP3 forms a head-to-head dimer in vivo and stabilizes its multimerization on adjacent microsatellites”.

This is one part of the list.

For the assay, the target named is T1, MBP-FoxP1dN (Mus musculus, UniProt P58462 326-579).
T1 sequence: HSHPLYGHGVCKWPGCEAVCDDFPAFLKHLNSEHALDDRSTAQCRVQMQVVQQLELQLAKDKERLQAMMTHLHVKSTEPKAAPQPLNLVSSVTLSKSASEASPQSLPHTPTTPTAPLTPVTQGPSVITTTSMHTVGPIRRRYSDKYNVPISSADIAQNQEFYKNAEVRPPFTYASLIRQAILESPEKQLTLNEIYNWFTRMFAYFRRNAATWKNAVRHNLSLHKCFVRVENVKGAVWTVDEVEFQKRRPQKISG
The experiment in a line: PD-seq (MBP pull-down with sequencing); 20 mM Tris-HCl pH 7.5, 100 mM NaCl, 1.5 mM MgCl2, 0.4 uM protein, 0.1 uM dsDNA library, 30 min, room temperature, amylose pull-down; high values mean tight binding. The following applies: protein: recombinant; tags: His6-MBP; chain copies: 2; dsDNA, one strand shown. Put shortly: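 Protein and DNA were mixed at 0.4 µM and 0.1 µM and held for 30 min at room temperature in Tris pH 7.5 buffer with NaCl and MgCl2; the protein was a His6-MBP-tagged, N-terminally truncated mouse FoxP3 or FoxP1 fragment from E. coli, and the DNA a Klenow-filled double-stranded degenerate library. Amylose resin captured the complexes, which were washed three times. Binding is read as reads-per-million enrichment of pull-down versus input after Illumina sequencing, with replicates pooled.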
Consider “GATGATTGTTCTCCCAGCTGATGAATTTCCAGAGTCGAGTAAACAAATTTTCCTAATCTTTCTGTTCAAGCGCCATCTAC”, for which the binding signal is 0.756 RPM ratio (pull-down/input). Then “GATGATTGTTCTCCCAGCTGATGAATTGGGCCGGTCGAGTAAACAAATTTTCCTAATCTTTCTGTTCAAGCGCCATCTAC”, with 0.758 RPM ratio (pull-down/input); and “GATGATTGTTCTCCCAGCTGATGAATTCTCGCGTTCGAGTAAACAAATTTTCCTAATCTTTCTGTTCAAGCGCCATCTAC”, with 0.935 RPM ratio (pull-down/input); and “GATGATTGTTCTCCCAGCTGATGAATTCACGCCCTCGAGTAAACAAATTTTCCTAATCTTTCTGTTCAAGCGCCATCTAC”, with 0.928 RPM ratio (pull-down/input).

As to “GATGATTGTTCTCCCAGCTGATGAATTGATTGAGTCGAGTAAACAAATTTTCCTAATCTTTCTGTTCAAGCGCCATCTAC”, the binding signal is 1.04 RPM ratio (pull-down/input).

Regarding “GATGATTGTTCTCCCAGCTGATGAATTTTCAGTCTCGAGTAAACAAATTTTCCTAATCTTTCTGTTCAAGCGCCATCTAC”, the binding signal is 0.849 RPM ratio (pull-down/input). The result for “GATGATTGTTCTCCCAGCTGATGAATTCTCGTTTTCGAGTAAACAAATTTTCCTAATCTTTCTGTTCAAGCGCCATCTAC” reads 1.04 RPM ratio (pull-down/input); that for “GATGATTGTTCTCCCAGCTGATGAATTGACAAAATCGAGTAAACAAATTTTCCTAATCTTTCTGTTCAAGCGCCATCTAC”, 1.71 RPM ratio (pull-down/input). Then “GATGATTGTTCTCCCAGCTGATGAATTGGGGCTATCGAGTAAACAAATTTTCCTAATCTTTCTGTTCAAGCGCCATCTAC”, with 0.865 RPM ratio (pull-down/input).

With “GATGATTGTTCTCCCAGCTGATGAATTGGTGCGTTCGAGTAAACAAATTTTCCTAATCTTTCTGTTCAAGCGCCATCTAC”, the binding signal was 1.04 RPM ratio (pull-down/input).

As to “GATGATTGTTCTCCCAGCTGATGAATTCGTCAAGTCGAGTAAACAAATTTTCCTAATCTTTCTGTTCAAGCGCCATCTAC”, the binding signal is 0.836 RPM ratio (pull-down/input). Then “GATGATTGTTCTCCCAGCTGATGAATTTGTCTCCTCGAGTAAACAAATTTTCCTAATCTTTCTGTTCAAGCGCCATCTAC”, with 1.04 RPM ratio (pull-down/input). In the case of “GATGATTGTTCTCCCAGCTGATGAATTCATCGGCTCGAGTAAACAAATTTTCCTAATCTTTCTGTTCAAGCGCCATCTAC”, the binding signal was 0.797 RPM ratio (pull-down/input). Then “GATGATTGTTCTCCCAGCTGATGAATTTTCTGAATCGAGTAAACAAATTTTCCTAATCTTTCTGTTCAAGCGCCATCTAC”, with 0.937 RPM ratio (pull-down/input); and “GATGATTGTTCTCCCAGCTGATGAATTAACCTGATCGAGTAAACAAATTTTCCTAATCTTTCTGTTCAAGCGCCATCTAC”, with 0.82 RPM ratio (pull-down/input). The result for “GATGATTGTTCTCCCAGCTGATGAATTCAACGACTCGAGTAAACAAATTTTCCTAATCTTTCTGTTCAAGCGCCATCTAC” reads 0.648 RPM ratio (pull-down/input); that for “GATGATTGTTCTCCCAGCTGATGAATTAGGAGAATCGAGTAAACAAATTTTCCTAATCTTTCTGTTCAAGCGCCATCTAC”, 0.99 RPM ratio (pull-down/input).

With “GATGATTGTTCTCCCAGCTGATGAATTGGCTGACTCGAGTAAACAAATTTTCCTAATCTTTCTGTTCAAGCGCCATCTAC”, the binding signal is 0.801 RPM ratio (pull-down/input). Then “GATGATTGTTCTCCCAGCTGATGAATTTAACAGTTCGAGTAAACAAATTTTCCTAATCTTTCTGTTCAAGCGCCATCTAC”, with 0.857 RPM ratio (pull-down/input).

For the sequence “GATGATTGTTCTCCCAGCTGATGAATTGGAGAGCTCGAGTAAACAAATTTTCCTAATCTTTCTGTTCAAGCGCCATCTAC”, the binding signal was 0.761 RPM ratio (pull-down/input). In the case of “GATGATTGTTCTCCCAGCTGATGAATTCATACCTTCGAGTAAACAAATTTTCCTAATCTTTCTGTTCAAGCGCCATCTAC”, the binding signal is 0.918 RPM ratio (pull-down/input). The result for “GATGATTGTTCTCCCAGCTGATGAATTGATTGACTCGAGTAAACAAATTTTCCTAATCTTTCTGTTCAAGCGCCATCTAC” reads 1.05 RPM ratio (pull-down/input). The result for “GATGATTGTTCTCCCAGCTGATGAATTGTATCGTTCGAGTAAACAAATTTTCCTAATCTTTCTGTTCAAGCGCCATCTAC” reads 1.2 RPM ratio (pull-down/input). The result for “GATGATTGTTCTCCCAGCTGATGAATTCCCGTTATCGAGTAAACAAATTTTCCTAATCTTTCTGTTCAAGCGCCATCTAC” reads 0.941 RPM ratio (pull-down/input).

For the sequence “GATGATTGTTCTCCCAGCTGATGAATTCGGTATCTCGAGTAAACAAATTTTCCTAATCTTTCTGTTCAAGCGCCATCTAC”, the binding signal was 0.853 RPM ratio (pull-down/input). The result for “GATGATTGTTCTCCCAGCTGATGAATTCTGTATATCGAGTAAACAAATTTTCCTAATCTTTCTGTTCAAGCGCCATCTAC” reads 1.67 RPM ratio (pull-down/input); that for “GATGATTGTTCTCCCAGCTGATGAATTTCCGATGTCGAGTAAACAAATTTTCCTAATCTTTCTGTTCAAGCGCCATCTAC”, 0.953 RPM ratio (pull-down/input).

For “GATGATTGTTCTCCCAGCTGATGAATTCCCGCCCTCGAGTAAACAAATTTTCCTAATCTTTCTGTTCAAGCGCCATCTAC”, the binding signal was 0.758 RPM ratio (pull-down/input). The result for “GATGATTGTTCTCCCAGCTGATGAATTTTCTATTTCGAGTAAACAAATTTTCCTAATCTTTCTGTTCAAGCGCCATCTAC” reads 0.975 RPM ratio (pull-down/input); that for “GATGATTGTTCTCCCAGCTGATGAATTATCGACCTCGAGTAAACAAATTTTCCTAATCTTTCTGTTCAAGCGCCATCTAC”, 0.931 RPM ratio (pull-down/input).

As to “GATGATTGTTCTCCCAGCTGATGAATTGGAGTTGTCGAGTAAACAAATTTTCCTAATCTTTCTGTTCAAGCGCCATCTAC”, the binding signal is 1.13 RPM ratio (pull-down/input). Take “GATGATTGTTCTCCCAGCTGATGAATTCTCGGGTTCGAGTAAACAAATTTTCCTAATCTTTCTGTTCAAGCGCCATCTAC”: the binding signal is 0.863 RPM ratio (pull-down/input).
